Measured values from the supplement of paper PMC4967469.

Experiments:
Test in all cases: Viability of human cancer cell lines after 72 h of drug (GDSC screen)
BMX-IN-1 (QL-XII-61) = compound: C=CC(=O)Nc1cc(-n2c(=O)ccc3cnc4ccc(-c5ccc(NS(C)(=O)=O)cc5)cc4c32)ccc1C [BMX-IN-1 (QL-XII-61)]; settings: top dose 10 µM; top dose inferred
Procedure: (§1)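 Human cancer cell lines in 384-well plates, medium with 10% serum, drug for 72 h over a 256-fold dose range (nine 2-fold or five 4-fold steps up to the top dose). Adherent lines were fixed and stained with the nucleic acid dye Syto60, suspension lines read with resazurin; signal relative to control wells, capped at 0 and 100%. One two-parameter sigmoid per drug and line, fitted in a mixed model over all curves with the slope shared within a line.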

17-AAG = compound: C=CCNC1=C2C[C@@H](C)C[C@H](OC)[C@H](O)[C@@H](C)/C=C(\C)[C@H](OC(N)=O)[C@@H](OC)/C=C\C=C(/C)C(=O)NC(=CC1=O)C2=O [17-AAG]; settings: top dose 1 µM
Procedure: as §1

CCT018159 = compound: CCc1cc(-c2n[nH]c(C)c2-c2ccc3c(c2)OCCO3)c(O)cc1O [CCT018159]; settings: top dose 10 µM; top dose inferred
Procedure: as §1

BIX02189 = compound: CN(C)Cc1cccc(N=C(c2ccccc2)c2c(O)[nH]c3cc(C(=O)N(C)C)ccc23)c1 [BIX02189]; settings: top dose 20 µM; top dose inferred
Procedure: as §1

Dimethyloxalylglycine = compound: COC(=O)CNC(=O)C(=O)OC [Dimethyloxalylglycine]; settings: top dose 4000 µM; top dose inferred
Procedure: as §1

Doxorubicin = compound: COc1cccc2c1C(=O)c1c(O)c3c(c(O)c1C2=O)C[C@@](O)(C(=O)CO)C[C@@H]3O[C@H]1C[C@H](N)[C@H](O)[C@H](C)O1 [Doxorubicin]; settings: top dose 1.024 µM
Procedure: as §1

OSI-027 = compound: COc1cccc2cc(-c3nc([C@H]4CC[C@H](C(=O)O)CC4)n4ncnc(N)c34)[nH]c12 [OSI-027]; settings: top dose 20 µM
Procedure: as §1

Vismodegib = compound: CS(=O)(=O)c1ccc(C(=O)Nc2ccc(Cl)c(-c3ccccn3)c2)c(Cl)c1 [Vismodegib]; settings: top dose 10 µM; top dose inferred
Procedure: as §1

VX-11e = compound: Cc1cnc(Nc2ccc(F)cc2Cl)nc1-c1c[nH]c(C(=O)N[C@H](CO)c2cccc(Cl)c2)c1 [VX-11e]; settings: top dose 5.12 µM; top dose inferred
Procedure: as §1

TG101348 = compound: Cc1cnc(Nc2ccc(OCCN3CCCC3)cc2)nc1Nc1cccc(S(=O)(=O)NC(C)(C)C)c1 [TG101348]; settings: top dose 10.24 µM
Procedure: as §1

UNC1215 = compound: O=C(c1ccc(C(=O)N2CCC(N3CCCC3)CC2)c(Nc2ccccc2)c1)N1CCC(N2CCCC2)CC1 [UNC1215]; settings: top dose 1 µM; top dose inferred
Procedure: as §1

Cell Line	AUC (BMX-IN-1 (QL-XII-61))	IC50 (BMX-IN-1 (QL-XII-61))	AUC (17-AAG)	IC50 (17-AAG)	AUC (CCT018159)	IC50 (CCT018159)	AUC (BIX02189)	IC50 (BIX02189)	AUC (Dimethyloxalylglycine)	IC50 (Dimethyloxalylglycine)	AUC (Doxorubicin)	IC50 (Doxorubicin)	AUC (OSI-027)	IC50 (OSI-027)	AUC (Vismodegib)	IC50 (Vismodegib)	AUC (VX-11e)	IC50 (VX-11e)	AUC (TG101348)	IC50 (TG101348)	AUC (UNC1215)	IC50 (UNC1215)
LB771-HNC (head and neck, adherent)	0.972	> 10 µM	0.899	> 1000 nM	0.924	> 10 µM	0.966	> 20 µM	0.554	365 µM	0.913	> 1020 nM	0.769	9.49 µM	0.982	> 10 µM	0.952	> 5.12 µM	0.934	> 10.2 µM	0.98	> 1000 nM
LB831-BLC (bladder, adherent)	0.979	> 10 µM	0.639	153 nM	0.962	> 10 µM	0.985	> 20 µM	0.639	611 µM	0.707	248 nM	0.757	7 µM	0.986	> 10 µM	0.981	> 5.12 µM	0.905	> 10.2 µM	0.986	> 1000 nM
LB1047-RCC (kidney, adherent)	0.943	> 10 µM	0.493	59.5 nM	0.905	> 10 µM	0.926	> 20 µM	0.282	55.3 µM	0.42	37.5 nM	0.453	0.912 µM	0.982	> 10 µM	0.944	> 5.12 µM	0.849	9.22 µM	0.977	> 1000 nM
LB2518-MEL (melanoma, adherent)	0.986	> 10 µM	0.707	248 nM	0.98	> 10 µM	0.98	> 20 µM	0.515	274 µM	0.758	372 nM	0.984	> 20 µM	0.981	> 10 µM	0.828	3.38 µM	0.987	> 10.2 µM	0.986	> 1000 nM
LC-1-sq (lung squamous cell carcinoma, adherent)	0.956	> 10 µM	0.885	> 1000 nM	0.985	> 10 µM	0.985	> 20 µM	0.636	635 µM	0.636	162 nM	0.727	6.24 µM	0.961	> 10 µM	0.982	> 5.12 µM	0.882	> 10.2 µM	0.983	> 1000 nM
LCLC-97TM1 (large cell lung carcinoma, adherent)	0.855	9.25 µM	0.577	104 nM	0.901	> 10 µM	0.838	15.4 µM	0.417	144 µM	0.246	11 nM	0.232	0.19 µM	0.934	> 10 µM	0.766	2.07 µM	0.598	1.23 µM	0.97	> 1000 nM
LK-2 (lung squamous cell carcinoma, adherent)	0.988	> 10 µM	0.692	208 nM	0.947	> 10 µM	0.927	> 20 µM	0.747	1210 µM	0.813	513 nM	0.633	2.85 µM	0.989	> 10 µM	0.958	> 5.12 µM	0.866	8.3 µM	0.987	> 1000 nM
LOU-NH91 (lung squamous cell carcinoma, adherent)	0.985	> 10 µM	0.462	48.9 nM	0.943	> 10 µM	0.986	> 20 µM	0.702	982 µM	0.929	> 1020 nM	0.977	> 20 µM	0.986	> 10 µM	0.985	> 5.12 µM	0.794	5.18 µM	0.985	> 1000 nM
LP-1 (myeloma, suspension)	0.993	> 10 µM	0.993	> 1000 nM	0.973	> 10 µM	0.964	> 20 µM	0.446	183 µM	0.968	> 1020 nM	0.251	0.282 µM	0.991	> 10 µM	0.967	> 5.12 µM	0.783	3.56 µM	0.987	> 1000 nM
LS-513 (large intestine, adherent)	0.965	> 10 µM	0.81	552 nM	0.808	5.44 µM	0.813	11.3 µM	0.778	1690 µM	0.923	> 1020 nM	0.718	5.31 µM	0.987	> 10 µM	0.557	0.462 µM	0.799	5.15 µM	0.986	> 1000 nM
LS-1034 (large intestine, adherent)	0.981	> 10 µM	0.919	> 1000 nM	0.972	> 10 µM	0.944	> 20 µM	0.833	2950 µM	0.698	246 nM	0.55	1.74 µM	0.942	> 10 µM	0.681	1.09 µM	0.807	5.94 µM	0.978	> 1000 nM

A lower IC50 marks a more sensitive line; where the fit passes the top or lowest dose, that dose stands as a limit. The AUC spans the tested range (256-fold, ending at the top dose) of the same fit; it is 1 without any effect and falls as sensitivity rises. For some assays here: Where the top dose is marked as inferred, it was calculated from the reported fits.
